Measured values as given in PMC6919601, “Identification of Plasmodium dipeptidyl aminopeptidase allosteric inhibitors by high throughput screening” (PLoS ONE, 2019).
Values joined by “and” are separate entries in the source; they are usually repeats but may differ in a detail not shown here. Equal entries are not always repeated. Screen size: about 110,000 compounds; about 230 (0.21%) showed an effect of 50% or more. This is one part of the list.

The molecules below were run against DPAP1 (Plasmodium falciparum, UniProt Q8IIJ9) (assay: primary screen, percent inhibition; read by cleavage of a fluorogenic dipeptide substrate; higher = more effect of the substance).
Sequence of DPAP1 (Q8IIJ9 whole entry, looked up): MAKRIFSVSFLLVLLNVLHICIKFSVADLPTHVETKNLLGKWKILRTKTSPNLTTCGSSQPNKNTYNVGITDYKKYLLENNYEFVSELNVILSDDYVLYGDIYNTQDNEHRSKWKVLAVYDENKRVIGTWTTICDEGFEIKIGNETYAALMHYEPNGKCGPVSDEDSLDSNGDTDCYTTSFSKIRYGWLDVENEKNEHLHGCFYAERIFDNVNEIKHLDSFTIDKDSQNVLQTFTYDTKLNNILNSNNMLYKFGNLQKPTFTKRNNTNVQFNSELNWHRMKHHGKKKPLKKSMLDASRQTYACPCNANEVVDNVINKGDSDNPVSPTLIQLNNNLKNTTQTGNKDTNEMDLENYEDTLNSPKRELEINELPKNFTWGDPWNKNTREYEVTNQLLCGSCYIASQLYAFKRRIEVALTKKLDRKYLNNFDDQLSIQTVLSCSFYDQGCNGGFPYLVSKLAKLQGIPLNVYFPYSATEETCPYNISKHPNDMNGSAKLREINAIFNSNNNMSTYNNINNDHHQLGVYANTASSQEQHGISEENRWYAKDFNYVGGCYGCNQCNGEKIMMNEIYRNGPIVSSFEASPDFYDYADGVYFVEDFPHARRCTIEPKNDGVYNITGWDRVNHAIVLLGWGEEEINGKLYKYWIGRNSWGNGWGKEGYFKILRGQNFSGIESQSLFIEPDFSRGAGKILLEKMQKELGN
Design: species or system P. falciparum D10 trophozoite lysates; single well
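Also: 30 min substrate incubation versus DMSO and 10 µM JCP410 controls.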

Compound	% Inhibition @ 10 uM
CCN1C(=O)S/C(=C/c2cccn2-c2ccc(C(=O)O)cc2)C1=O	-1.82%
N=C1/C(=C\c2ccc(OCCOc3ccccc3)cc2)C(=O)N=C2SC(N3CCCC3)=NN12	1.72%
CSc1c2c(nn1-c1ccccc1)CC(C)(C)CC2=O	1.02%
CC1=NN(c2c(F)c(F)c(F)c(F)c2F)C(=O)/C1=C/c1cccc([N+](=O)[O-])c1	-4.61%
COc1cccc(C2C(C#N)=C(N)Oc3c2oc(CO)cc3=O)c1 (stereo not drawn)	0.777%
O=C(Nc1cc(Cl)c(Cl)cc1Cl)c1ccc(Cl)cc1Cl	-2.6%
COc1ccc(CCNCC(O)Cn2c3c(c4ccccc42)CCN(C)C3=O)cc1OC (stereo not drawn)	3.16%
Cc1ccc(C(=O)N2c3ccc(F)cc3CCC2C)o1 (stereo not drawn)	-7.81%
Clc1ccccc1N1CCN(C/C=C/c2ccccc2)CC1	-1.64%
COc1cc(CN2CCN(Cc3cc(OC)c(OC)c(OC)c3)CC2)cc(OC)c1O	11.1%
CC(C)n1cc(NC(=O)COc2ccccc2Cl)cn1	-5.72%
CCn1c(NC(=O)c2cccs2)nc2ccccc21	-4.72%
Cc1ccc(C2NC(=O)Cc3ccccc32)cc1 (stereo not drawn)	-0.711%
Cc1ccc(OCC(=O)Nc2cccc(C#N)c2)cc1	0.795%
C=CCSc1nc(C)c2cc(C)c(C)cc2n1	4.75%
CCOCCCNC(=O)C(NC(=O)CNC(C)=O)c1ccc(Cl)cc1 (stereo not drawn)	-2.04%
Cc1ccc(CNC(=O)CSc2nncn3c2cc2sccc23)cc1	1.42%
COC(F)(C(=O)Nc1nc2ccccc2s1)C(F)(F)F (stereo not drawn)	1.84%
CCC(C)OC(=O)C1=C(C)NC(=O)NC1c1ccccc1OCc1ccccc1 (stereo not drawn)	2.7%
Cc1nnc(N2CCC(C(=O)NCc3ccc4c(c3)OCO4)CC2)c2nn(-c3ccccc3)c(C)c12	-1.39%
Cc1nc2ccccc2cc1C(=O)Nc1ccc(C(F)(F)F)cc1	-3.43%
O=C1C(=Cc2cn(CC(=O)N3CCOCC3)c3ccccc23)C(=O)c2ccccc21	3.72%

Compound	% Inhibition @ 10 uM
CCCC(=O)Nc1nc2ccc(F)cc2s1	4.19%
O=C(Nc1cccc(Cl)c1)c1cc2nc(C(F)F)cc(C(F)F)n2n1	2.08%
COc1cccc(CN2CCN(Cc3ccccc3C)CC2)c1OC	2.39%
CCOc1cc2c(cc1OCC)C(c1cccc(OC)c1)NCC2 (stereo not drawn)	2.49%
CSCCC(C(=O)O)N1C(=O)c2c(Cl)c(Cl)c(Cl)c(Cl)c2C1=O (stereo not drawn)	19.4%
Cc1nc(O)nc(O)c1S(=O)(=O)N1CCN(CCOc2ccc(Cl)cc2)CC1	-1.38%
COc1cc2c(cc1/C=C1/NC(=O)N(CC(=O)Nc3cccc(C)c3)C1=O)OCO2	-16.5%
CCN(CC)CCCNC(=O)c1cnn2c(C)c(Cc3c(F)cccc3Cl)c(C)nc12	-2.26%
COCC(=O)N1CCN(c2nc3ccccc3o2)CC1	-4.49%
O=c1oc(/C=C/c2ccco2)nc2sc3c(c12)CCC3	-4.93%
O=[N+]([O-])c1ccc(CN2CCCCCC2)o1	-4.35%
N#CC1=C(N)OC2=C(C(=O)CCC2)C1c1ccc(Cl)c(Cl)c1 (stereo not drawn)	-1.86%
Cc1ccc(C)c(NC(=O)Cn2cnc3c(=O)n(C)c(=O)n(C)c32)c1	-4.12% and 3.53%
CCOc1ccc(NC2=NC(=O)/C(=C/c3ccc(N4CCCC4)o3)S2)cc1	18.7%
CC(=O)c1nn(-c2ccc(Cl)cc2)nc1Nc1cnc2ccccc2c1	-5.33%
Cc1ccc(-c2nc(C(=O)Nc3ccc(Cl)cn3)c3n2CCCCC3)cc1	1.14%
COc1ccc(CN(CCCN(C)C)CCCN(C)C)cc1OC	4.8%
Cc1ccc(CN2C(=O)N/C(=C\c3cccn3-c3cccc(C(=O)O)c3)C2=O)cc1	7.68%
CS(=O)(=O)N(CC(=O)Nc1ccccc1C(=O)O)c1ccc(F)cc1	2.78%
COc1ccc(NC(=O)Nc2ccc(Cc3ccncc3)cc2)cc1	4.22%
Cc1ccc(CNC(=O)C(Cc2ccccc2)N2Cc3ccccc3C2=O)cc1 (stereo not drawn)	2.59%
COc1ccc(C2CC(c3cc(OC)ccc3OC)n3nnnc3N2)cc1 (stereo not drawn)	0.0842%

Compound	% Inhibition @ 10 uM
Clc1ccc(/C=C/c2nnc3ccccc3n2)cc1	-3.44%
Cc1ccsc1CN1CCN(c2ncccn2)CC1	-0.828%
c1ccc(CCn2nnc3ccccc32)cc1	-2.98%
COc1ccc(OC)c(CN2CCN(Cc3cccc(Cl)c3)CC2)c1	-8.37%
COc1ccc(OCC(=O)Nc2ccc(NC(C)=O)cc2)cc1	2.48%
CCCOc1ccc(Oc2nc(NCC)nc(N(C)C)n2)nn1	-1.81%
CCc1ccc(-n2c(C)nc3cc(C(=O)NCCCOC)ccc32)cc1	-1.99%
FC(F)(F)c1ccc(-c2noc(CCc3ccccc3)n2)cc1	-0.671%
CCN(c1ccccc1C(=O)O)S(=O)(=O)/C=C/c1ccccc1	-1.29%
CC(C)CN(CC(C)C)C(=O)/C(=C/c1cn(C)c2ccccc12)NC(=O)c1ccco1	-1.74%
CC1CCCN(c2ncnc3c2cnn3-c2ccccc2)C1 (stereo not drawn)	5.84%
N#CC1=C(N)N=C(S)C(C(N)=O)C1c1ccccc1 (stereo not drawn)	-2.16%
Nc1ccc(C(=O)Nc2ccc(C(=O)O)cc2)c(C(=O)O)c1	1.9%
CNc1nc(Sc2nc(C)cc(Cl)n2)nc(N2CCOCC2)n1	-4.73%
CCOC(=O)N1CCN(C(=O)CN(c2cccc(OC)c2)S(C)(=O)=O)CC1	0.0451%
CC(C)CC(=O)NCC(C)NC(=O)CC(C)C (stereo not drawn)	5.14%
c1ccc(-c2nn3c(Cn4nnc5ccccc54)nnc3s2)nc1	2.89%
COc1ccc(CN2CCN(c3ncnc4sc5c(c34)CC(C)CC5)CC2)cc1 (stereo not drawn)	-2.65%
Cc1cccc2sc(NC(=O)C3CCC3)nc12	2.02%
CNC(=O)Cn1nc(C)n2cccc2c1=O	-5.78%
CC1=C(C(=O)NCCC2=CCCCC2)C2(CCC(C)CC2)OC1=O (stereo not drawn)	-3.7%
Cc1cccc(OCC(O)Cn2c(N3CCCC3)nc3c2c(=O)[nH]c(=O)n3C)c1 (stereo not drawn)	3.93%
